Measured values as given in EPA's CvTdb concentration-time database.
This continues a long series; more values of the same kind are listed elsewhere.

System: rat
Test: concentration in blood after dosing

CC(C)(C)CC(C)(C)c1ccc(O)cc1 [octylphenol]
dosed: p-tert-octylphenol, 125 mg/kg, female, Sprague-Dawley
Conditions | concentration in blood [ng/mL]
0.9757 h | 21.4
1.988 h | 44.6
4.068 h | 117
5.946 h | 218
7.99 h | 182
12.02 h | 193
24.01 h | 130

ClC=C(Cl)Cl [trichloroethylene]
concentration in blood [ng/mL], dosed: trichloroethylene, inhalation, duration: 2 hr, male, Sprague Dawley
Conditions | 50 ppm | 500 ppm
0.1305 h | – | 6930
0.1655 h | – | 7220
0.2483 h | – | 7610
0.3301 h | – | 10200
0.4094 h | – | 11200
0.4952 h | – | 12200
0.7436 h | – | 13500
0.995 h | – | 15300
1.244 h | – | 14500
1.496 h | – | 15400
1.503 h | 644 | –
1.748 h | – | 15300
1.75 h | 596 | –
1.997 h | – | 17200
2 h | 606 | –
2 min | – | 3070
2.027 h | – | 12900
2.029 h | 342 | –
2.061 h | 272 | –
2.063 h | – | 12500
2.093 h | 263 | –
2.102 h | – | 11500
2.131 h | – | 10400
2.132 h | 166 | –
2.162 h | 227 | –
2.166 h | – | 10100
2.246 h | – | 8870
2.25 h | 154 | –
2.328 h | 167 | –
2.333 h | – | 7560
2.411 h | 96.6 | –
2.416 h | – | 7410
2.498 h | 126 | –
2.5 h | – | 6680
2.745 h | 85.5 | –
2.746 h | – | 5610
2.998 h | 74.1 | –
3.003 h | – | 3470
3.249 h | – | 2600
3.251 h | 57.9 | –
3.501 h | 46.5 | 1920
3.747 h | – | 1590
3.751 h | 32.7 | –
3.993 h | – | 1350
4 h | 23.7 | –
4.495 h | – | 868
4.5 h | 15.5 | –
4.996 h | – | 780
221 s | – | 4490
347 s | – | 4780
